Data taken from article PMC4081560 (PLoS ONE, 2014).

Test system: rK09/NA:Y275 virus
Test: microbe, parasite or virus in culture
Conditions: Influenza A virus, MDCK

NC(=O)c1nc(F)cnc1O [Favipiravir, 6-fluoro-3-hydroxy-2-pyrazinecarboxamide]
EC50: 14.7 µM
